Experimental findings from publication PMC4336329 (PLoS ONE, 2015) are described below.

SMILES strings stand for the structures. Screen size: about 310,000 compounds; about 2,200 (0.71%) showed an effect of 50% or more. The effect is printed as a negative number. The list shows a part of the results. Where a SMILES comes first, the peptide text is derived from it. The star is where a group is joined. Cbz = O=C(OCc1ccccc1)*

The target in this assay is human ether-à-go-go-related gene (hERG) potassium channel (human, UniProt Q12809). In words: primary screen, population patch clamp on CHO cells stably expressing hERG.
Chain of human ether-à-go-go-related gene (hERG) potassium channel (Q12809 whole entry, looked up): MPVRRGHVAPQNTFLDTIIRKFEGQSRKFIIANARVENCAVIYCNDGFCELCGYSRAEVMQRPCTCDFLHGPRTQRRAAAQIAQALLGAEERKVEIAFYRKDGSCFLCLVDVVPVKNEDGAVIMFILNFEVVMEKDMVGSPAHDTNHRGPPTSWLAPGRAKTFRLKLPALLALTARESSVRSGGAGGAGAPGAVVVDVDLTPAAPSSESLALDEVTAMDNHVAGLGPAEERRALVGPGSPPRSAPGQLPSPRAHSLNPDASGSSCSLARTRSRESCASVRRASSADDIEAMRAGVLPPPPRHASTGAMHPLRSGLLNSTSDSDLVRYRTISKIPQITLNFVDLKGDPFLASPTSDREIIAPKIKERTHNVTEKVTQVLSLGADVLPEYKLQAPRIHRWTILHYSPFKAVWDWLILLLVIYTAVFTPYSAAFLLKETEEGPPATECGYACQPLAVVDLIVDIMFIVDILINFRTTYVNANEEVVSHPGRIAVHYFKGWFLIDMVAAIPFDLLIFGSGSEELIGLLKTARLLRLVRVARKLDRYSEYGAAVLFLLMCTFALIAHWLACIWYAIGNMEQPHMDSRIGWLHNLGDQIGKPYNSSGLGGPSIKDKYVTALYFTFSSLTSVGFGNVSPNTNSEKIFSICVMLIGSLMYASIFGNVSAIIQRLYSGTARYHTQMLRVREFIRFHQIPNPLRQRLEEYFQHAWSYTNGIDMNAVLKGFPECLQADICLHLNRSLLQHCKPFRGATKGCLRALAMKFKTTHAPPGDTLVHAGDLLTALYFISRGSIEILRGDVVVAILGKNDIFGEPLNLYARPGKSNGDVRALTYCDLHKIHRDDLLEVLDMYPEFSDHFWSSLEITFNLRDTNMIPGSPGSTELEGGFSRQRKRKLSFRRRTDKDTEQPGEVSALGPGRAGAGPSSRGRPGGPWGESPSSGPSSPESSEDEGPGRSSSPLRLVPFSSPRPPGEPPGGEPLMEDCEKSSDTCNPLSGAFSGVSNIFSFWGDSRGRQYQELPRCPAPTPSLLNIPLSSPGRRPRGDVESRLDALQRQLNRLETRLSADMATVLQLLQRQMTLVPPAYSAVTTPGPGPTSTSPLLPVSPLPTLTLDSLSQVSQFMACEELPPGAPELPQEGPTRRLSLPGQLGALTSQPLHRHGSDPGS
`COC(=O)Nc1sc(C(=O)N(C)C)c(C)c1C(=O)OC`: the “hERG current change (%, negative = inhibition) at 1uM” value is listed as 10.5%. The value for `CCOC(=O)C1=C(C)N=c2s/c(=C\c3cccn3C)c(=O)n2C1c1cccc(OC)c1OC` (stereo not shown) was 9.51%; that for `Cc1cccc(C)c1NC(=O)CNC(=O)c1ccccc1OCc1ccccc1` was 7.34%; that for `COc1ccccc1NC(=O)C1CCCN1S(=O)(=O)c1cccc2nsnc12` (stereo not shown) was 16.8%. To `O=C(N/N=C/c1cccc(Cl)c1)c1c(O)c2c([nH]c1=O)CCCC2` belongs 7.1%. On to `Cc1cccc(NC(=S)NNC(=S)NCc2ccccc2)c1`, for which the “hERG current change (%, negative = inhibition) at 1uM” value was 0.544%.

Regarding `O=C(O)Cn1cnc2c(oc3ccccc32)c1=O`, the “hERG current change (%, negative = inhibition) at 1uM” value is on record as 14.5%.

For the compound `CC(=O)c1ccc(OCC(=O)N2CCN(S(=O)(=O)c3ccc(C)cc3C)CC2)cc1`, the “hERG current change (%, negative = inhibition) at 1uM” value is -10.7%. The value for `Cc1cc(NC(=S)Nc2ccccc2)ccc1Br` was 2.59%. The value for `COc1cccc(NC(=O)Nc2ccc3nc(C)c(C)nc3c2)c1` was 8.78%; that for `C=CCNC(=O)c1onc(CSc2ccc(F)cc2)c1C(=O)NCCOC` was -3.86%.

For `Cc1[nH]c2ccccc2c1/C=N/NC(=O)c1cc(-c2ccncc2)nc2ccccc12`, the “hERG current change (%, negative = inhibition) at 1uM” value stood at 1%.

For `CC1CN(C(=O)c2ccc(COc3ccc(C(C)C)cc3)o2)CC(C)O1` (stereo not shown), the “hERG current change (%, negative = inhibition) at 1uM” value was found to be 6.41%.

Take `CCN1C(=O)[C@@H]2[C@@H](c3ccc(SC4CCCCC4)cc3)N3CCCC[C@@]3(C(=O)OC)[C@@H]2C1=O.O=C(O)C(F)(F)F`: the “hERG current change (%, negative = inhibition) at 1uM” value is reported as 9.18%. The value for `COc1ccc(C(=O)OCC(=O)NC2CC2)cc1S(=O)(=O)Nc1ccc(C)cc1` was 8.55%; that for `COc1ccc(CC(=O)NCC2CCCN(Cc3ccccc3OC)C2)cc1` (stereo not shown) was 16.5%; that for `COc1ccc([C@H](C)NC[C@H](O)c2ccc(O)c(NC=O)c2)cc1.O=C(O)/C=C/C(=O)O` was 7.73%. Regarding `Cc1onc(-c2c(F)cccc2Cl)c1C(=O)N=C(N)N1CC(C)OC(C)C1` (stereo not shown), the “hERG current change (%, negative = inhibition) at 1uM” value is given as 4.11%. Turning to `CC(C)(C)OC(=O)NCC1CCC(C(=O)NC[C@H](CC(=O)O)c2ccc(Cl)cc2)CC1` (stereo partly shown), the “hERG current change (%, negative = inhibition) at 1uM” value amounted to 15.6%. To `Cc1ccc(NC(=O)c2cc(N3C(=O)CCC3=O)ccc2N2CCCCC2)cc1` belongs 13.6%. To `Cc1c(C=O)c2ccccc2n1Cc1ccc([N+](=O)[O-])cc1` belongs -24.7%; to `Cn1c(N)c(C(=O)COC(=O)C2(c3cccc(F)c3)CCCC2)c(=O)n(C)c1=O`, 4.85%; to `Brc1ccc(Nc2nc(-c3cccnc3)cs2)cc1`, 3.42%. The value for `CSc1ccc(N2CCN(CCCNC(=O)Nc3ccccc3F)CC2)cc1` was -5%; that for `CN(C)S(=O)(=O)c1ccc(NC(=O)N2CCN(c3ccccc3)CC2)cc1` was 9.53%. Regarding `C=CCOc1ccccc1/C=N/n1nnnc1N`, the “hERG current change (%, negative = inhibition) at 1uM” value is on record as 3.5%. The value for `Cn1nc(C(F)(F)F)c(CN2CC(C)(C)C2=O)c1N1CCOCC1` was 14.3%. The value for `CCOc1ccc(CNc2ccc(N3CCOCC3)c(C(=O)O)c2)cc1` was 12.3%; that for `O=C(NCc1cccs1)C(=O)NCC1OCCCN1S(=O)(=O)c1cccs1` (stereo not shown) was 1.05%; that for `Cl.O=c1cn[nH]c2ccccc12` was -2.68%. To `COc1cc2oc(=O)ccc2cc1[C@H](O)[C@@H](O)C(C)(C)O` belongs 13.2%. In the case of `CCOC(=O)c1cnn(-c2ccc(Cl)cc2)c1C1CCN(C(=O)OC(C)(C)C)CC1`, the “hERG current change (%, negative = inhibition) at 1uM” value is given as 9.66%. To `CC(COC(=O)c1ccccc1)(COC(=O)c1ccccc1)/[N+]([O-])=C/c1ccccc1` belongs 9.2%; to `CC(C)C(=O)c1cn(CC(=O)NCc2ccc3c(c2)OCO3)c2ccccc12`, 16.7%; to `CCc1ccccc1NC(=O)CNC1CCCCC1.[O-][Cl+3]([O-])([O-])O`, 11.6%. The value for `Nc1ccc(C(=O)N2CCN(S(=O)(=O)c3ccc(Cl)cc3)CC2)cc1[N+](=O)[O-]` was -4.43%.

Turning to `O=C(C1CCCCC1)N1CCN(S(=O)(=O)c2cccc([N+](=O)[O-])c2)CC1`, the “hERG current change (%, negative = inhibition) at 1uM” value is on record as 3.63%. The value for `CC(C)c1nc2sc3c(NCc4ccco4)ncnc3c2c2c1COC(C)(C)C2` was -7.83%; that for `O=C1C2CCCN2C(=O)N1CCCCN1CCN(c2ccc(F)cc2)CC1` (stereo not shown) was -10%. To `CCCc1nnc(SCC(=O)Nc2cc(C)on2)n1CCOC` belongs 13.2%; to `Fc1ccc(NC(=S)N2CCc3ccccc32)cc1`, 12.4%. Take `Clc1ccccc1-c1nc(-c2cccnc2)no1`: the “hERG current change (%, negative = inhibition) at 1uM” value came out at 12.4%. To `O=C1c2ccccc2C(=O)N1CCCn1nnc(-c2ccc(N3CCOCC3)cc2)n1` belongs 8.3%; to `COc1ccc2[nH]c3c(=O)n(Cc4ccc(C(=O)N5CCCCCC5)cc4)c(=S)[nH]c3c2c1`, 5.1%; to `O=C1C2=C(c3ccccc31)[N+](=O)C1CCCCC1N2[O-]` (stereo not shown), -7.07%. The value for `O=C(CN1C(=O)NC(Cc2c[nH]c3ccccc23)C1=O)Nc1cccc(S(=O)(=O)N2CCOCC2)c1` (stereo not shown) was 12.1%.

As for `COc1ccc(N(CC(=O)NC2CCCC2)C(=O)Cn2nnc(-c3ccc(C)cc3)n2)cc1OC`, the “hERG current change (%, negative = inhibition) at 1uM” value came out at 10.1%. The value for `CCCN1CCN(CCCNC(=O)Cn2nc(-c3ccccc3)ccc2=O)CC1` was -3.23%; that for `Cc1ccc(CNC(=O)CCC(=O)c2cccs2)cc1` was 0.701%; that for `CCOC(=O)C1C(c2ccc(O)c(OCC)c2)NC(=S)NC1(O)C(F)(F)F` (stereo not shown) was -6.98%. The value for `O=c1c2c(nc3cc(-c4cccc(Cl)c4)[nH]n13)CCC2` was 6.34%; that for `Fc1ccccc1NC(=S)NCc1ccc(Cl)cc1` was 23.1%.

Take `Cc1nn(-c2ccccc2)nc1C(=O)NNC(=O)c1cccc2ccccc12`: the “hERG current change (%, negative = inhibition) at 1uM” value worked out at 4.74%.

Consider `O=C(N/N=C/c1ccc(O)c(Br)c1)c1cc2c(ccc3ccccc32)o1`, for which the “hERG current change (%, negative = inhibition) at 1uM” value is 10.9%.

For the compound `COc1ccc2[nH]cc(S(=O)(=O)c3ccc(C)cc3)c2c1`, the “hERG current change (%, negative = inhibition) at 1uM” value is given as 4.68%. The value for `CCOc1ccc(S(=O)(=O)N2CCN(C(=O)c3cc(-c4ccccc4)nn3-c3ccccc3)CC2)cc1` was 1.24%; that for `CCn1c(SCc2cccc(F)c2)nnc1-c1cccnc1` was 0.0692%; that for `O=C1C=C(c2ccc(O)cc2)C[C@@H](c2ccc(Cl)cc2)C1` was 20.6%.

Regarding `COc1cn(-c2ccccc2)nc1C(=O)Nc1ccccc1`, the “hERG current change (%, negative = inhibition) at 1uM” value came to 10%. The value for `CC1=C(C#N)C2C(/C1=N/O)C2(C)C` (stereo not shown) was 17.1%; that for `COc1ccc(NC(=O)c2ccccc2S(=O)c2ccccc2C#N)cc1` (stereo not shown) was 7.33%; that for `C=CCn1c(SCC(=O)Nc2ccc(F)cc2)nc2cc(C(=O)O)ccc2c1=O` was 8.51%. As to `CC1=NN(C(N)=S)C(=O)C1N=Nc1cc(Cl)ccc1Cl` (stereo not shown), the “hERG current change (%, negative = inhibition) at 1uM” value stood at 13.6%. To `COc1cc(SC)ccc1C(=O)N1CCN(S(=O)(=O)/C=C/c2ccccc2)CC1` belongs -17.7%; to `CN(C1(C)CCS(=O)(=O)C1)S(=O)(=O)c1ccc2ccccc2c1` (stereo not shown), 7.8%. Consider `COc1ccc(C(=O)N2CCCC(C(=O)N3CCCCCC3)C2)cc1` (stereo not shown), for which the “hERG current change (%, negative = inhibition) at 1uM” value is listed as 4.17%. The value for `Cn1cnc2cc(NCc3cccs3)ccc21` was 2.33%; that for `C/C(=N\NC(=O)c1ccc(Br)o1)c1cc2c(cc1NC(=O)CCC(=O)O)OCO2` was 14.3%. To `Cc1noc(C)c1COc1cccc(C(=O)OC(C)C(=O)Nc2c(C)n(C)n(-c3ccccc3)c2=O)c1` (stereo not shown) belongs 10%; to `O=C(Nc1nc(-c2ccccc2)nc2ccccc12)c1ccc(F)cc1`, 16.9%. The value for `Cc1ccccc1OCCNC(=O)CNC(=O)c1ccccc1O` was -30.6%; that for `O=C(O)c1ccc(-c2ccc(O)c(F)c2)cc1` was 10.9%; that for `CCn1c(-c2cc(-c3ccc(OC(C)C)cc3)nc3ccccc23)n[nH]c1=S` was -2.73%.

`Cc1nn(C)c(Cl)c1C(=O)NCC(=O)NCc1ccccc1`: the “hERG current change (%, negative = inhibition) at 1uM” value is recorded as 11.1%. The value for `O=C(O)CCC(NC(=O)C1CCCN1C(=O)OCc1ccccc1)C(=O)O` (stereo not drawn) (Cbz-Pro-Glu-OH; configuration not given here) was 11.1%. To `Cc1ccc(-n2nnnc2SCC(=O)NNC(=O)c2ccco2)cc1C` belongs 19.7%. The value for `N#CCC(=O)Nc1ccc(C(=O)OC(C(=O)Nc2cc(C(F)(F)F)ccc2Cl)c2ccccc2)cc1` (stereo not shown) was 4.71%; that for `CCS(=O)(=O)Nc1cc(OC)c(OC)cc1Cc1nccc2cc(OC)c(OC)cc12` was -4.86%; that for `Cc1nc2ccc([N+](=O)[O-])cc2c(=O)n1Cc1cccc(Br)c1` was 6.43%. Turning to `CCOC(=O)C1(CC2CC2)CCN(C(=O)c2ocnc2C)CC1`, the “hERG current change (%, negative = inhibition) at 1uM” value worked out at 18.4%.

For the compound `COc1cc(S(=O)(=O)Nc2c(C)nn(C)c2C)ccc1NC(C)=O`, the “hERG current change (%, negative = inhibition) at 1uM” value amounted to 12.4%. In the case of `O=C1CCCC2=C1C(c1ccsc1)CC(=O)N2c1ccccc1` (stereo not shown), the “hERG current change (%, negative = inhibition) at 1uM” value is given as 4.09%.

As to `CC(=O)Nc1cccc2c1C(=O)N(c1ccccc1C)C2=O`, the “hERG current change (%, negative = inhibition) at 1uM” value is recorded as 15%. The value for `O=C(Nc1ccc2[nH]ncc2c1)c1ccccc1Cl` was 22%. Turning to `CCCC(=O)Nc1cc2c(cc1C(=O)c1ccccc1)OCCO2`, the “hERG current change (%, negative = inhibition) at 1uM” value was -1.17%.
